Reference: patent publication US20230303698A1 (HARBOUR BIOMED SHANGHAI, published 2023)

Molecular target: T1, human 4-1BB (human, UniProt Q07011 24-255)
T1 construct: whole, on cells; Expressed on CHO-K1/hu 4-1BB cells (GenScript, M00538); also called CD137; TNFRSF9
Test: flow cytometry, CHO-K1/hu 4-1BB cells (refers back to FIG. 3 (D))

T1 sequence (Q07011 24-255): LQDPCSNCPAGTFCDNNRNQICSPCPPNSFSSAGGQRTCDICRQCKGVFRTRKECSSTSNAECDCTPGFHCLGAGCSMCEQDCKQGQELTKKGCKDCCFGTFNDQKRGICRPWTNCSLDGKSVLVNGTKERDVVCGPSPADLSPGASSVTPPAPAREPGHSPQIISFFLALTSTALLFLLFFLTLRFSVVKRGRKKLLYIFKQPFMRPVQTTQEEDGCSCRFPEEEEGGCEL

binding result: binds
B1: PR004278 (bispecific antibody, human IgG1, kappa)
light: EIVMTQSPATLSVSPGERATLSCRASQSISSNLGWYQQKPGQAPRLLIYGASTRATGIPARFSGSGSGTEFTLTISSLQSEDFAVYYCQQYQSWPPLTFGGGTKVEIKRTVAAPSVFIFPPSDEQLKSGTASVVCLLNNFYPREAKVQWKVDNALQSGNSQESVTEQDSKDSTYSLSSTLTLSKADYEKHKVYACEVTHQGLSSPVTKSFNRGEC
heavy: EVQLVESGGGVVQPGGSLRLSCAASGFTFSNYAMTWVRQAPEKGLEWVSSISGSGVSTYYADSVKGRFTISRDNSKNTLYLQMTRLTAEDTAVYFCAKEGSSETDDHYYNVDVWGQGTTVTVSSGGGGSGGGGSGGGGSQVQLVESGGGVVQPGRSLRLSCAASGFTFRSFGMHWVRQAPGKGLEWVAVISYDASNEYYADSVKGRFIISRDNSKDTLYLQMNSLRAGDTAVYYCAKGGGLRWYFAYWGQGTLVTVSSASTKGPSVFPLAPSSKSTSGGTAALGCLVKDYFPEPVTVSWNSGALTSGVHTFPAVLQSSGLYSLSSVVTVPSSSLGTQTYICNVNHKPSNTKVDKKV[letters of human IgG1 Fc with changes not shown]
notes: Structure 7, VH-IgG tetravalent symmetric; 4-1BB VH from PR001760 at the N-terminus of the heavy chain of the B7H4 IgG PR002408; linker GS_15; human IgG1 (LALA); also called B7H4×4-1BB molecule with the VH-IgG structure
